Results reported in the supplement of paper PMC8728848.
This is one part of the list.

Experiments:
Assay in all cases: glycan array binding signal (z-score within array); higher = stronger binding
Settings in all cases: glycan notation: IUPAC condensed, linker removed
Neu(a2-3)Gal(b1-4)Glc = molecular target: Neu(a2-3)Gal(b1-4)Glc
How it was run: (§1)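 The binding signal is a Z-score computed within each array and averaged over linkers. Arrays of the same protein sequence at different concentrations or buffers were also averaged together. Data originate from 3228 arrays in the Consortium for Functional Glycomics database, kept only where the protein sequence was available.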

[1] = molecular target: Neu(a2-3)Gal(b1-4)GlcNAc(b1-3)Gal(b1-4)[Fuc(a1-3)]GlcNAc(b1-3)Gal(b1-4)Glc
How it was run: as §1

[2] = molecular target: Neu(a2-3)Gal(b1-4)GlcNAc6S(b1-3)Gal(b1-4)Glc
How it was run: as §1

[3] = molecular target: Neu(a2-3)Gal(b1-4)[Fuc(a1-3)]GlcNAc(b1-3)Gal(b1-4)Glc
How it was run: as §1

[4] = molecular target: Neu(a2-3)Gal(b1-4)[Fuc(a1-3)]GlcNAc6S(b1-3)Gal(b1-4)Glc
How it was run: as §1

[5] = molecular target: Neu(a2-3)Gal6S(b1-4)[Fuc(a1-3)]GlcN(b1-3)Gal(b1-4)Glc
How it was run: as §1

Neu(a2-6)Gal(b1-4)Glc = molecular target: Neu(a2-6)Gal(b1-4)Glc
How it was run: as §1

[6] = molecular target: Neu4Ac5Ac(a2-3)Gal(b1-4)Glc
How it was run: as §1

[7] = molecular target: Neu4Me5Ac(a2-3)Gal(b1-4)Glc
How it was run: as §1

Neu5Ac(a2-2)Glc = molecular target: Neu5Ac(a2-2)Glc
How it was run: as §1

[8] = molecular target: Neu5Ac(a2-3)4dGal(b1-4)[Fuc(a1-3)]GlcNAc(b1-3)Gal
How it was run: as §1

[9] = molecular target: Neu5Ac(a2-3)6dGal(b1-4)[Fuc(a1-3)]GlcNAc(b1-3)Gal
How it was run: as §1

Neu5Ac(a2-3)Gal = molecular target: Neu5Ac(a2-3)Gal
How it was run: as §1

[10] = molecular target: Neu5Ac(a2-3)Gal(b1-3)6dGalNAc
How it was run: as §1

[11] = molecular target: Neu5Ac(a2-3)Gal(b1-3)GalNAc
How it was run: as §1

[12] = molecular target: Neu5Ac(a2-3)Gal(b1-3)GalNAc(b1-4)[Neu5Ac(a2-3)]Gal(b1-4)Glc
How it was run: as §1

[13] = molecular target: Neu5Ac(a2-3)Gal(b1-3)GalNAc(b1-4)[Neu5Ac(a2-8)Neu5Ac(a2-3)]Gal(b1-4)Glc
How it was run: as §1

[14] = molecular target: Neu5Ac(a2-3)Gal(b1-3)GalNAc6S
How it was run: as §1

[15] = molecular target: Neu5Ac(a2-3)Gal(b1-3)GalNAc6S(b1-4)Gal(b1-4)Glc
How it was run: as §1

[16] = molecular target: Neu5Ac(a2-3)Gal(b1-3)GlcNAc
How it was run: as §1

[17] = molecular target: Neu5Ac(a2-3)Gal(b1-3)GlcNAc(b1-3)Gal(b1-4)Glc
How it was run: as §1

[18] = molecular target: Neu5Ac(a2-3)Gal(b1-3)GlcNAc(b1-3)[Fuc(a1-3)[Gal(b1-4)]GlcNAc(b1-6)]Gal(b1-4)Glc
How it was run: as §1

[19] = molecular target: Neu5Ac(a2-3)Gal(b1-3)[Fuc(a1-3)]GlcN(b1-3)Gal(b1-4)Glc
How it was run: as §1

[20] = molecular target: Neu5Ac(a2-3)Gal(b1-3)[Fuc(a1-4)]GlcNAc
How it was run: as §1

[21] = molecular target: Neu5Ac(a2-3)Gal(b1-3)[Fuc(a1-4)]GlcNAc(b1-3)Gal(b1-4)Glc
How it was run: as §1

[22] = molecular target: Neu5Ac(a2-3)Gal(b1-3)[Neu5Ac(a2-6)]GalNAc
How it was run: as §1

[23] = molecular target: Neu5Ac(a2-3)Gal(b1-3)[Neu5Ac(a2-6)]GalNAc(b1-4)Gal(b1-4)Glc
How it was run: as §1

[24] = molecular target: Neu5Ac(a2-3)Gal(b1-3)[Neu5Ac(a2-6)]GlcNAc(b1-3)Gal(b1-4)Glc
How it was run: as §1

Neu5Ac(a2-3)Gal(b1-4)Glc = molecular target: Neu5Ac(a2-3)Gal(b1-4)Glc
How it was run: as §1

[25] = molecular target: Neu5Ac(a2-3)Gal(b1-4)GlcNAc
How it was run: as §1

[26] = molecular target: Neu5Ac(a2-3)Gal(b1-4)GlcNAc(b1-2)Man(a1-3)[Neu5Ac(a2-3)Gal(b1-4)GlcNAc(b1-2)Man(a1-6)]Man(b1-4)GlcNAc(b1-4)[Fuc(a1-6)]GlcNAc
How it was run: as §1

[27] = molecular target: Neu5Ac(a2-3)Gal(b1-4)GlcNAc(b1-3)Gal(b1-4)Glc
How it was run: as §1

[28] = molecular target: Neu5Ac(a2-3)Gal(b1-4)GlcNAc(b1-6)GalNAc(a1-3)Gal(b1-4)Glc
How it was run: as §1

[29] = molecular target: Neu5Ac(a2-3)Gal(b1-4)GlcNAc6S(b1-3)Gal6S(b1-3)GlcNAc6S
How it was run: as §1

[30] = molecular target: Neu5Ac(a2-3)Gal(b1-4)[3dFuc(a1-3)]GlcNAc(b1-3)Gal
How it was run: as §1

[31] = molecular target: Neu5Ac(a2-3)Gal(b1-4)[4dFuc(a1-3)]GlcNAc(b1-3)Gal
How it was run: as §1

[32] = molecular target: Neu5Ac(a2-3)Gal(b1-4)[6dTal(a1-3)]GlcNAc(b1-3)Gal
How it was run: as §1

[33] = molecular target: Neu5Ac(a2-3)Gal(b1-4)[Fuc(a1-3)]Glc
How it was run: as §1

[34] = molecular target: Neu5Ac(a2-3)Gal(b1-4)[Fuc(a1-3)]GlcNAc
How it was run: as §1

[35] = molecular target: Neu5Ac(a2-3)Gal(b1-4)[Fuc(a1-3)]GlcNAc(b1-3)Gal
How it was run: as §1

[36] = molecular target: Neu5Ac(a2-3)Gal(b1-4)[Fuc(a1-3)]GlcNAc(b1-3)Gal(b1-4)Glc
How it was run: as §1

[37] = molecular target: Neu5Ac(a2-3)Gal(b1-4)[Fuc(a1-3)]GlcNAc(b1-3)Gal(b1-4)[Fuc(a1-3)]GlcNAc(b1-3)Gal(b1-4)Glc
How it was run: as §1

[38] = molecular target: Neu5Ac(a2-3)Gal(b1-4)[Fuc(a1-3)]GlcNAc(b1-4)GalNAc(b1-3)Gal(b1-4)Glc
How it was run: as §1

[39] = molecular target: Neu5Ac(a2-3)Gal(b1-4)[Fuc(a1-3)]GlcNAc(b1-6)Gal(b1-4)Glc
How it was run: as §1

[40] = molecular target: Neu5Ac(a2-3)Gal(b1-4)[Fuc(a1-3)]GlcNAc6S(b1-3)Gal(b1-4)Glc
How it was run: as §1

[41] = molecular target: Neu5Ac(a2-3)Gal(b1-4)[Fuc2Me(a1-3)]GlcNAc(b1-3)Gal
How it was run: as §1

[42] = molecular target: Neu5Ac(a2-3)Gal(b1-4)[Qui(a1-3)]GlcNAc(b1-3)Gal
How it was run: as §1

[43] = molecular target: Neu5Ac(a2-3)Gal(b1-4)[Rha(a1-3)]GlcNAc(b1-3)Gal
How it was run: as §1

Neu5Ac(a2-3)Gal3S = molecular target: Neu5Ac(a2-3)Gal3S
How it was run: as §1

[44] = molecular target: Neu5Ac(a2-3)Gal6S(b1-4)[Fuc(a1-3)]GlcNAc(b1-3)Gal(b1-4)Glc
How it was run: as §1

[45] = molecular target: Neu5Ac(a2-3)Gal6S(b1-4)[Fuc(a1-3)]GlcNAc6S(b1-3)Gal(b1-4)Glc
How it was run: as §1

[46] = molecular target: Neu5Ac(a2-3)GalNAc(b1-4)GlcNAc
How it was run: as §1

[47] = molecular target: Neu5Ac(a2-3)GalNBz(b1-4)GlcNAc
How it was run: as §1

[48] = molecular target: Neu5Ac(a2-3)[GalNAc(b1-4)]Gal(b1-3)Gal
How it was run: as §1

[49] = molecular target: Neu5Ac(a2-3)[GalNAc(b1-4)]Gal(b1-3)GalNAc(b1-4)[Neu5Ac(a2-3)]Gal(b1-4)Glc
How it was run: as §1

[50] = molecular target: Neu5Ac(a2-3)[GalNAc(b1-4)]Gal(b1-3)Glc
How it was run: as §1

[51] = molecular target: Neu5Ac(a2-3)[GalNAc(b1-4)]Gal(b1-4)Glc
How it was run: as §1

[52] = molecular target: Neu5Ac(a2-3)[GalNAc(b1-6)]Gal(b1-4)Glc
How it was run: as §1

Neu5Ac(a2-6)Gal = molecular target: Neu5Ac(a2-6)Gal
How it was run: as §1

[53] = molecular target: Neu5Ac(a2-6)Gal(b1-3)GalNAc(b1-4)Gal(b1-4)Glc
How it was run: as §1

Measured: glycan array binding signal (z-score)

B1: HysACBM (Streptococcus pneumoniae), Q54873 (protein)
chain: KNLVENGDFGQTEDGSSPWTGSKAQGWSAWVDQKNSADASTRVIEAKDGAITISSHEKLRAALHRMVPIEAKKKYKLRFKIKTDNKIGIAKVRIIEESGKDKRLWNSATTSGTKDWQTIEADYSPTLDVDKIKLELFYETGTGTVSFKDIELVEVADQLS
-0.054: [23]
-0.045: [9]
-0.052: [27]
0.258: Neu(a2-3)Gal(b1-4)Glc | [4]
-0.062: [47]
0.16: [49]
0.823: Neu(a2-6)Gal(b1-4)Glc
-0.049: Neu5Ac(a2-3)Gal
-0.063: [36]
-0.007: [20]
-0.069: Neu5Ac(a2-3)Gal(b1-4)Glc
-0.091: all other assays above
